# Laboratory results reported in the supplement of paper PMC10338343.
# ± gives the standard deviation. In all, about 3,000 sequences were measured (“pre-steady-state target cleavage rate”: median about 0.0079, highest 2% from about 0.2 on). The entries are a selection whose mix differs from that of the whole data set.
# Tested on: MILI (PIWIL2) piRISC loaded with piRNA #2 (26 nt)
# Assay: pre-steady-state target cleavage rate (min^-1); MIWI and MILI are mouse PIWI proteins and EfPiwi is from a freshwater sponge; tags in brackets are library labels; higher = faster piRNA-guided slicing of the target
# Conditions: guide: piRNA #2 5'p-UUAGGUAACCCAGUAGAUCCAGAGGA; auxiliary factor: 500 nM mouse GTSF1
# In short: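 Using HEPES–potassium acetate buffer at 33 °C, 1 nM active affinity-purified piRISC with a single synthetic guide was mixed with 0.1 nM transcribed, DNA-blocked target RNA library for 0–8 or 0–960 min, with or without 500 nM GTSF1 partner protein. Uncleaved targets were sequenced and normalised to depth and to weakly complementary targets, and three trials were pooled with k3 capped at 0.0001 min^-1. A burst-and-steady-state fit gave the pre-steady-state cleavage rate.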
row,Sequence,pre-steady-state target cleavage rate
1,CUUAAGGACUGGAUCUACAGGGUUACCUUA,0.0366 ± 0.0097
2,CUUAACCUCUCGAUCUACUGGGUUACGUAA,0.052 ± 0.017
3,CUUAAGGAGAGGCUCUACUGGGUUACCUAA,0.0144 ± 0.0069
4,CUUAAGCUCUGGAUCUACUGGGUUACCAAA,0.101 ± 0.021
5,CUUAUCCUCUGGAUAUACUGGGUUACCUAA,0.126 ± 0.018
6,CUUAACCUCUGGUUCUACUGGCUUACCUAA,0.0095 ± 0.0042
7,CUUAAGGAGACCUAGAUGUGCCUUACCUAA,< 0.0001
8,CUUAAGGUCUGGAUACUACUGGGUUACCUAA,0.0257 ± 0.011
9,CUUAAGCACUGGAACUACUGGGUUACCUAA,0.0798 ± 0.021
10,CUUAAGGUGUGGAUCUACUGGGUUACCUAA,0.055 ± 0.013
11,CUUAACCUCUGGAUCUACUGGCAUACCUAA,< 0.0001
12,CUUAACCACUGGAUCUACUGGGAUACCUAA,0.0188 ± 0.0073
13,CUUAACCUCUGGAUCUACUGGGUUGCCUAA,0.1 ± 0.025
14,CUUAAGCUCUCGAUGUACUGGGUUACCUAA,0.127 ± 0.022
15,CUUAACCUCUGGAACUACAGGGUUACCUAA,0.081 ± 0.016
16,CUUAUCGAGUGGAUCUACUGGGUUACCUAA,0.0665 ± 0.015
17,CUUAAGCUCUGGAUCUAGUGGGUUACCUAA,0.0282 ± 0.0073
18,CUUAUCCUCUGGAUCAACUGGGUUACCUAA,0.0659 ± 0.012
19,CUUAACCUGUGGAUCUACUGGGUUACCUAA,0.1 ± 0.015
20,CUUAAGGAGACCUAGAUCUGGGUUAACCUAA,< 0.0001
21,CUUAUCCUCUCGAUCUACUGGGUUUCCUAA,0.171 ± 0.045
22,CUUAAGGAGUGAUCUACUGGGUUACCUAA,0.00697 ± 0.0033
23,CUUAACCUCUGGAUCUAGUGGGUUACCAAA,0.0493 ± 0.011
24,CUUAAGCUCACCAUCUACUGGGUUACCUAA,0.00577 ± 0.004

row,Sequence,pre-steady-state target cleavage rate
1,CUUAAGGUCUGGAUCUACUGGGUUAUCCUAA,0.0784 ± 0.018
2,CUUAUCCAUCUGGAUCUACUGGGUUACCUAA,0.103 ± 0.018
3,CUUAAGGAGAGGAUCUACUGGGUUACCUUAA,0.0068 ± 0.0052
4,CUUAAGGUCUGGAUCUACUGGGUUACGUAA,0.0334 ± 0.01
5,CUUAUCCUCUGGAUCUAGUGGGUUAGCUAA,0.0264 ± 0.0075
6,CUUAAGGACCUGGAUCUACUGGGUUACCUAA,0.0218 ± 0.013
7,CUUAUCCUCUGGAACUAGUGGGUUACCUAA,0.107 ± 0.022
8,CUUAAGCUCUGGUUCUACUGGGUUACGUAA,0.0928 ± 0.036
9,CUUAAGCUCUGGAUCUACUGGGUAACGUAA,0.0173 ± 0.0066
10,CUUAAGGACUGGAUCGACUGGGUUACCUAA,0.028 ± 0.017
11,CUUAACCUCUGGAUCUUCUGGGUUUCCUAA,0.243 ± 0.083
12,CUUAAGGAGUGGACCUACUGGGUUACCUAA,0.0235 ± 0.0084
13,CUUAAGCUCUGUGAUCUACUGGGUUACCUAA,0.0332 ± 0.01
14,CUUAACCUCUGGUUCUACUGCGUUACCUAA,0.0235 ± 0.0092
15,CUUAAGGACUGGAUCUAGUGGGUAACCUAA,0.0103 ± 0.0079
16,CUUAACCUCUGGAUCUACAGGGUUUCCUAA,0.0711 ± 0.022
17,CUUAAGGAGACCUUCUACUGGGUUACGAUA,< 0.0001
18,CUUAAGGACUGGGUCUACUGGGUUACCUAA,0.0227 ± 0.015
19,CUUAAGGUCUGGAUCCACUGGGUUACCUAA,0.0447 ± 0.01
20,CUUAAGGAGUGGAUCUAAUGGGUUACCUAA,0.0278 ± 0.0079
21,CUUAAGGAGUGGAUCUUCUGGGUUACCUAA,0.0205 ± 0.0088
22,CUUAAGGAGUGGCAUCUACUGGGUUACCUAA,0.128 ± 0.058
23,CUUAAGCUCUGGAUGUACUGGGUUUCCUAA,0.0435 ± 0.021
24,CUUAAGCUCUGGUUGUACUGGGUUACCUAA,0.0943 ± 0.018

row,Sequence,pre-steady-state target cleavage rate
1,CUUAUCCAGUGGAUCUACUGGGUUACCUAA,0.0917 ± 0.018
2,CUUAAGGAGUGGAUCUAGAGGGUUACCUAA,0.0116 ± 0.0037
3,CUUAAGGAGACCUAGAUGUGGGUUACCUGA,< 0.0001
4,CUUAAGCUCUGGAUCUUCUGGGUUACGUAA,0.0233 ± 0.0083
5,CUUAAGCUCUGGAUGUACUGCGUUACCUAA,0.0117 ± 0.0053
6,CUUAAGCCUGGAUCUACUGGGUUACCUAA,0.104 ± 0.026
7,CUUAACCUCUGGAUGAACUGGGUUACCUAA,0.0583 ± 0.015
8,CUUAAGGACUGGAUCUACUGGGUUGACCUAA,0.011 ± 0.0094
9,CUUAAGGUCUGGAUCUUCUGGGUAACCUAA,0.0086 ± 0.0056
10,CUUAAGGAGUGGAUCUACUGGGUUACCAA,0.0144 ± 0.005
11,CUUAACCUCUGGAUCUACGGGUUACCUAA,0.0165 ± 0.0065
12,CUUAAGGAGUGGAUCUUCAGGGUUACCUAA,0.0231 ± 0.0065
13,CUUAACCUCUGGAUCUAGUGGGUUAGCUAA,0.0139 ± 0.0064
14,CUUAAGGUCUGGAUCAACUGGGUUACCAAA,0.0256 ± 0.0083
15,CUUAAGCUGUGGUUCUACUGGGUUACCUAA,0.0437 ± 0.014
16,CUUAUCCUCUGGAUCUACAGGGUUACCAAA,0.102 ± 0.019
17,CUUAAGCACUGGAUCUUCUGGGUUACCUAA,0.0825 ± 0.017
18,CUUAUCCUCUGGCUCUACUGGGUUACCUAA,1.12 ± 0.3
19,CUUAAGGUCAUGGAUCUACUGGGUUACCUAA,0.0733 ± 0.016
20,CUUAACCUCUGUAUCUACUGGGUUACCUAA,0.071 ± 0.013
21,CUUAUCCUCUGGAUCUACAGGGUUACGUAA,0.0553 ± 0.013
22,CUUAAGCUCUGGAUCUAGUGGGUUACCUUA,0.0243 ± 0.0063
23,CUUAAGCUCUGGAUAUACUGGGUUACCUAA,0.0695 ± 0.011
